In all, about 110,000 compounds went through this assay and about 230 (0.21%) showed an effect of 50% or more. This is one part of the list.
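Further: 30 min substrate incubation versus DMSO and 10 µM JCP410 controls.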

DPAP1, sequence (Q8IIJ9 whole entry, looked up): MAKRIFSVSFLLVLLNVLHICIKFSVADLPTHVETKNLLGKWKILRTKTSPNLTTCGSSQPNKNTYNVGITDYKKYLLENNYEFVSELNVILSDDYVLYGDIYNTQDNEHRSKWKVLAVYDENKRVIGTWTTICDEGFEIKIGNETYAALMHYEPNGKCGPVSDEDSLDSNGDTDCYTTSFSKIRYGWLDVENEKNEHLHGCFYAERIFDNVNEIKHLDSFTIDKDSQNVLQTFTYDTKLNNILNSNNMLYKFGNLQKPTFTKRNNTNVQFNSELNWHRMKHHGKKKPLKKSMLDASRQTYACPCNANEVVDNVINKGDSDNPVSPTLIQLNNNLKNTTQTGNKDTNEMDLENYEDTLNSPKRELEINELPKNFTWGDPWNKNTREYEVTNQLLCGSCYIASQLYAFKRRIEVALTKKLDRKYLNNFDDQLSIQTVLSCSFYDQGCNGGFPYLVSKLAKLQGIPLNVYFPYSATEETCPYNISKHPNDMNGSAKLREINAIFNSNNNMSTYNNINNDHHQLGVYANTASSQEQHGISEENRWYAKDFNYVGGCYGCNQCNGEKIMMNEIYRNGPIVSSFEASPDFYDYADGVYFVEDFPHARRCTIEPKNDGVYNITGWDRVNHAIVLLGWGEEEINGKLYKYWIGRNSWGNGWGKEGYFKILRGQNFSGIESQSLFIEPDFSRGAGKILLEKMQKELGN

This assay has as its target DPAP1 (Plasmodium falciparum, UniProt Q8IIJ9). In words: primary screen, percent inhibition; read by cleavage of a fluorogenic dipeptide substrate; higher = more effect of the substance. The arrangement: species or system P. falciparum D10 trophozoite lysates; single well.
Consider `CC(=C\c1ccccc1)/C=C1N=C(/C=C/c2ccccc2)OC/1=O`, for which the “% Inhibition @ 10 uM” value is given as 2.11%. For `Cc1ccc(NC(=O)c2nn(C)cc2Br)c(C)c1` the value was -14.6%; for `COc1ccc(C(=O)NCCc2ccc(OC)c(OC)c2)c(OC)c1`, 0.35%; for `CC(C)(C)c1ccc(S(=O)(=O)NCc2ccc(C(=O)NCc3ccc(F)cc3)cc2)cc1`, -5.64%. As for `COCCOC(=O)c1c(C)oc2ccc(OCc3cc(=O)oc4cc(C)cc(C)c34)cc12`, the figure is -1.11%; as for `O=C(Cn1c(=O)c2cccn2c2cccnc21)NCCCc1ccccc1`, -7.24%; as for `O=C(O)CC12CC3CC(C1)CC(n1ncc(NCc4ccc(F)cc4)c(Cl)c1=O)(C3)C2`, -0.999%. `CCc1ccc(-n2nnc(S(=O)(=O)c3ccc(C)cc3)c2C)cc1`: the “% Inhibition @ 10 uM” value was -4.58%. `Cc1nc2ccc(S(=O)(=O)NC(C(=O)Nc3nccs3)C(C)C)cc2s1` (stereo not drawn): the “% Inhibition @ 10 uM” value is 9.05%.

As for `O=C(Cc1noc2ccccc12)Nc1cccnc1Cl`, the “% Inhibition @ 10 uM” value is on record as -3.49%.

With `Cc1coc2c(C)c3oc(=O)c(CCC(=O)NCc4ccc5c(c4)OCO5)c(C)c3cc12`, the “% Inhibition @ 10 uM” value is 5.68%. With `COc1ccc2c(c1)nc1n2CN(CC2CCCO2)CN1Cc1ccccc1` (stereo not drawn), the “% Inhibition @ 10 uM” value worked out at 2.31%. In the case of `Cc1cc(O)c2c(C)c(CC(=O)NCc3ccccc3)c(=O)oc2c1`, the “% Inhibition @ 10 uM” value was determined as 0.895%.

Take `Cc1ccc(CNC(=O)CSc2nc3nccnc3c(=O)n2CCc2c[nH]c3ccccc23)cc1`: the “% Inhibition @ 10 uM” value is listed as -5.01%.

In the case of `Cc1noc(C)c1S(=O)(=O)N(C)CC(=O)NC1CCCCC1`, the “% Inhibition @ 10 uM” value is -7.66%. Regarding `CCOC(=O)c1c(N)n(-c2ccc(OC)cc2)c2nc3ccccc3nc12`, the “% Inhibition @ 10 uM” value is -7.87%. For `O=S(=O)(c1cc(Cl)ccc1Cl)N1CCCc2ccccc21` the value was 3.53%; for `CCn1nc(C)c(NC(=O)c2ccoc2C)c1C`, -4.5%. For `Cc1cc(C)nc(N(C#N)CN2C(=O)c3ccccc3C2=O)n1` the value was -0.759%; for `CC(C)CC1Oc2ccccc2C2CC(c3ccccc3O)=NN12` (stereo not drawn), -3.72%. For `N#CCNC(=O)C(CSCc1ccccc1)NC(=O)c1cccc(NC(=O)Nc2nncs2)c1` (stereo not drawn) the value was -3.49%; for `COc1ccc(CNCc2c(C(=O)O)n(C)c3cc(OC)ccc23)cc1`, 0.711%; for `CCN(C(=O)C1CCC(C)CC1)c1nc(-c2ccccc2)cs1` (stereo not drawn), 1.49%.

In the case of `CCOc1ccccc1OCC(C)CNC` (stereo not drawn), the “% Inhibition @ 10 uM” value is reported as -5.35%. For `COc1cccc(N2C(=O)CC(N3CCc4ccccc4C3)C2=O)c1` (stereo not drawn) the value was 2.42%.

Regarding `Cc1ccc(OCC(=O)Nc2nn3c(CC(C)C)nnc3s2)cc1`, the “% Inhibition @ 10 uM” value was 5.53%. As for `CC1=CC=CN2C(=O)C(Cc3ccccc3)(NC(=O)c3ccccc3)N=C12` (stereo not drawn), the “% Inhibition @ 10 uM” value is listed as 4.22%.

With `COc1ccc(C(CC(=O)Nc2cccc(C)n2)N2Cc3ccccc3C2=O)cc1OC` (stereo not drawn), the “% Inhibition @ 10 uM” value is listed as -1.48%.

Take `CC(C)CNc1nc(Oc2ccc(OCc3ccccc3)nn2)nc(N2CCOCC2)n1`: the “% Inhibition @ 10 uM” value is given as 5.2%. As for `CCCCNC(=O)CNC(=O)c1cccs1`, the figure is 3.66%; as for `O=C(COc1ccc(Cl)cc1)N1CCN(C2C3CC4CC(C3)CC2C4)CC1` (stereo not drawn), -3.4%; as for `O=C(Nc1ccc(Br)c2cccnc12)c1ccc(Cn2cc(Cl)cn2)o1`, 5.9%. In the case of `CCc1nn(CC(=O)NCc2ccccc2OC)c(=O)c2cc3sccc3n12`, the “% Inhibition @ 10 uM” value is 1.8%. As for `Cc1ccc(S(=O)(=O)Cc2nc(-c3ccc(C(=O)NCCN(C)C)cc3)oc2C)cc1`, the figure is -2.4%. For `O=C(O)c1ccccc1C(=O)Nc1ccc(-c2ccccc2)cc1` the value was -0.736%. As for `COC(=O)C1=C(C)N(CC2CCCO2)C(=O)/C1=C\c1cccc(Br)c1` (stereo not drawn), the figure is -3.4%; as for `COc1ccc(CNS(=O)(=O)c2cccc3cccnc23)cc1`, -3.44%; as for `O=S(=O)(c1cnc(Cl)c(Br)c1)N1CCc2ccccc21`, 0.389%. On to `CCc1ccc(OCC(=O)Nc2ccc(S(=O)(=O)NC(C)(C)C)cc2)cc1`, for which the “% Inhibition @ 10 uM” value is reported as -0.695%.

For the compound `COc1ccc(/C=C2/C(=O)NC(=O)N(C(C)(C)C)C2=O)c(OC)c1`, the “% Inhibition @ 10 uM” value is listed as -1.69%. `CC(C)(C)c1ccc(C(=O)NCc2ccco2)cc1`: the “% Inhibition @ 10 uM” value is reported as -0.48%.

On to `Cc1ccc(NC(=O)CN2C(=O)N/C(=C/c3ccco3)C2=O)cc1`, for which the “% Inhibition @ 10 uM” value is given as -2.19%. For `O=C(CN(c1cccc(Br)c1)S(=O)(=O)c1ccccc1)NC1CC1` the value was 6.79%; for `COc1ccc2nc(SCC(=O)N3CCc4ccccc4C3)nc(C)c2c1`, -1.06%; for `CC(C)(C)c1ccc(Cn2c(-c3nonc3N)nc3ccccc32)cc1`, 3.48%. Take `CCCN(CCO)C/C(Br)=C/c1ccccc1`: the “% Inhibition @ 10 uM” value turned out to be 3.35%. Turning to `CN1CCc2c(sc3nc(SCC(N)=O)nc(SCC(N)=O)c23)C1`, the “% Inhibition @ 10 uM” value is reported as -2.46%. As for `CCC(NS(=O)(=O)c1ccccc1)C(=O)O` (stereo not drawn), the “% Inhibition @ 10 uM” value was -5.28%. As for `COc1cc(C(=O)Nc2cccc(C)c2)cc(OC)c1OC`, the “% Inhibition @ 10 uM” value stood at 4.96%. As for `CC(CCc1ccccc1)NCC1CCCO1` (stereo not drawn), the “% Inhibition @ 10 uM” value was -0.0908%.

Regarding `COc1ccc(N(CC(=O)NC2CCCC2)S(=O)(=O)c2ccc(C)cc2)cc1OC`, the “% Inhibition @ 10 uM” value is given as -3.04%.

The values above are taken from article PMC6919601, “Identification of Plasmodium dipeptidyl aminopeptidase allosteric inhibitors by high throughput screening” (PLoS ONE, 2019).
